# Experimental data reported in PubChem BioAssay (Tox21).
# Values joined by “and” are separate entries in the source; they are usually repeats but may differ in a detail not shown here. Equal values may be shown once. The inconclusive results got no clear call from the source; some entries with a clear call stand among them for comparison. For part of these data: Potencies beside an inconclusive call are fits to weak or partial responses and may not hold up. Active and inactive are the calls of the source. Unless noted, calls come from the whole dose curve; as a rule, active = well fitted curve in the direction sought with a large enough effect in the repeat runs; inconclusive = weak or mixed curves; inactive = no such curve, though single readings can be large; an effect the other way counts as inactive or inconclusive.
# Key:
# [1] = qHTS assay to identify small molecule antagonists of the peroxisome proliferator-activated receptor gamma (PPARg) signaling pathway - cell viability counter screen (AID 743194); conditions: PPARg-bla HEK293H viability, CellTiter-Glo luminescence, 17 h, co-treated with 50 nM rosiglitazone; activity change, negative = cytotoxicity: at 62.6 µM (top of the series); note: nearly all actives have a fitted effect of over 55% in size; note: potency is the fitted concentration of half-maximal effect; for activity change, negative = cytotoxicity: % is set by controls: 0 for no effect and ±100 for the full control effect
# In short: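 PPARg-UAS-bla HEK293H cells were plated, rested 5 h at 37 C, then treated with compounds plus rosiglitazone (50 nM final) for 17 h at 37 C; viability was then read by CellTiter-Glo luminescence after 30 min at room temperature.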
# [2] = qHTS assay for small molecule agonists of the antioxidant response element (ARE) signaling pathway (AID 743202; active = well fitted activation curve with a large enough effect in the signal ratio in the repeat runs, not every such curve was filed as active; inconclusive = weak or mixed curves, or effect the other way; inactive = no such curve, though single readings can be large or run the other way; the % refers to the signal ratio; note: potency is the fitted concentration of half-maximal effect; for activation: % is set by controls: 0 for no effect and ±100 for the full control effect); conditions: HepG2 ARE-bla reporter, beta-lactamase FRET, 16 h
# In short: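 Following a 16 h, 37 C exposure of reporter HepG2 cells (ARE-driven beta-lactamase, 2,000 cells/well) to compounds, FRET substrate was applied for 2 h at room temperature and fluorescence intensity recorded.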
# [3] = qHTS assay for small molecule activators of the heat shock response signaling pathway - cell viability counter screen (AID 743209); conditions: HSE-bla HeLa viability, CellTiter-Glo luminescence, 5 h; activity change, negative = cytotoxicity: at 62.6 µM (top of the series); note: nearly all actives have a fitted effect of over 50% in size; note: potency is the fitted concentration of half-maximal effect; for activity change, negative = cytotoxicity: % is set by controls: 0 for no effect and ±100 for the full control effect
# In short: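 Cytotoxicity counter screen run in parallel with the HSE beta-lactamase reporter, using the same wells. HeLa HSE-bla cells received compound for 5 h at 37 C; ATP-based CellTiter-Glo luminescence was measured after 30 min at room temperature.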
# [4] = target: Vitamin D3 receptor (Homo sapiens) (UniProt P11473); test: qHTS assay to identify small molecule antagonists of the vitamin D receptor (VDR) signaling pathway (AID 743223; active = well fitted inhibition curve with a large enough effect in the signal ratio in the repeat runs, not every such curve was filed as active; inconclusive = weak or mixed curves, or effect the other way; inactive = no such curve, though single readings can be large or run the other way; the % refers to the signal ratio; note: % is set by controls: 0 for no effect and ±100 for the full control effect); conditions: VDR-UAS-bla HEK293T, beta-lactamase FRET ratio, 16 h
# Sequence of UniProt P11473 (P11473 whole entry, looked up): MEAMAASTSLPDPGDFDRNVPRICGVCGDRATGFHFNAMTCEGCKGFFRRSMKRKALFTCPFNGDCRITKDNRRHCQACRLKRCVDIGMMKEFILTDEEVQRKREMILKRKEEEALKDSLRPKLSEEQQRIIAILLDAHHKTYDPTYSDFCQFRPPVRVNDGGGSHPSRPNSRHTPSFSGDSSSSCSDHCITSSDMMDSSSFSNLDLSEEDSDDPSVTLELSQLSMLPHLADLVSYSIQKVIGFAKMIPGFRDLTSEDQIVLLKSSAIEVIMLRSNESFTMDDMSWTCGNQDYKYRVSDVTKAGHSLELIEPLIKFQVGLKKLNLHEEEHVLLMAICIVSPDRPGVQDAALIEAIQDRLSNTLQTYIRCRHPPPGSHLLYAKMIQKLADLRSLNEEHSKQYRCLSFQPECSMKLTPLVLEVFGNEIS
# In short: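 Antagonist mode uses 1alpha,25-dihydroxyvitamin D3 at 3 nM final as stimulus. VDR-bla cells receive compounds in DMSO, incubate 16 h at 37C, then a beta-lactamase FRET substrate for 2 h at room temperature before fluorescence measurement.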
# [5] = target: Bile acid receptor (Homo sapiens) (UniProt Q96RI1); test: qHTS assay to identify small molecule antagonists of the farnesoid-X-receptor (FXR) signaling pathway (AID 743217; active = well fitted inhibition curve with a large enough effect in the signal ratio in the repeat runs, not every such curve was filed as active; inconclusive = weak or mixed curves, or effect the other way; inactive = no such curve, though single readings can be large or run the other way; the % refers to the signal ratio; note: potency is the fitted concentration of half-maximal effect); conditions: HEK293T FXR-UAS-bla, beta-lactamase ratio, CDCA-stimulated, 16 h
# Sequence of UniProt Q96RI1 (Q96RI1 whole entry, looked up): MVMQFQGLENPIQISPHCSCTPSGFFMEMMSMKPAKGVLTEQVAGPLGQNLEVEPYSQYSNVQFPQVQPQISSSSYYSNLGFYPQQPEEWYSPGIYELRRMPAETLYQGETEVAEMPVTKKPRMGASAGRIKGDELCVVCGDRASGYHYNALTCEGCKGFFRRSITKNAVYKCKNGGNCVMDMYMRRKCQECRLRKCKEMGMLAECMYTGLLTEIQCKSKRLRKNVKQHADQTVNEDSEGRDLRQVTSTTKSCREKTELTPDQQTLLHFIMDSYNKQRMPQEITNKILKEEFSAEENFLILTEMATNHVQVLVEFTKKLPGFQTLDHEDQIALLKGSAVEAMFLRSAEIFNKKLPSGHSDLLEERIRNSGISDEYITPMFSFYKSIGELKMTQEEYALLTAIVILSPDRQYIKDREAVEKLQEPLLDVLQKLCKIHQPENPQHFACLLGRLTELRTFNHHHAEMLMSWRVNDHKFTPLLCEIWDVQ
# In short: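 Cells carrying a UAS-driven beta-lactamase reporter (GeneBLAzer FXR-UAS-bla HEK 293T) were plated and rested 5 h at 37 °C. Compounds in DMSO were added alongside chenodeoxycholic acid agonist at 50 uM final and left 16 h at 37 °C before FRET substrate readout.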
# [6] = qHTS assay for small molecule activators of the heat shock response signaling pathway (AID 743210; active = well fitted activation curve with a large enough effect in the signal ratio in the repeat runs, with a control signal flat, not every such curve was filed as active; inconclusive = weak or mixed curves; the % refers to the signal ratio; note: potency is the fitted concentration of half-maximal effect); conditions: HeLa HSE-bla reporter, beta-lactamase ratio, 5 h; activation: at 62.6 µM (top of the series)
# In short: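 Heat shock element–beta-lactamase HeLa reporter cells; qHTS with compounds for 5 h at 37 C; detection by FRET substrate fluorescence after 2.5 h at RT.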
# [7] = qHTS assay to identify small molecule agonists of the farnesoid-X-receptor (FXR) signaling pathway - cell viability counter screen (AID 743218); conditions: FXR-bla HEK293T viability, CellTiter-Glo luminescence, 16 h; viability change, negative = cytotoxic: at 62.6 µM (top of the series) unless noted; note: % is set by controls: 0 for no effect and ±100 for the full control effect; nearly all actives have a fitted effect of over 45% in size
# In short: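 Cells were seeded, left 5 h at 37 C and 5% CO2, then dosed with compound in DMSO for 16 h. After the beta-lactamase FRET read, CellTiter-Glo was added and luminescence measured 30 min later.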
# [8] = qHTS assay to identify small molecule antagonists of the farnesoid-X-receptor (FXR) signaling pathway - cell viability counter screen (AID 743221; active = well fitted cell-killing curve with a large enough effect in the repeat runs, not every such curve was filed as active; inconclusive = weak or mixed curves, or effect the other way; inactive = no such curve, though single readings can be large or run the other way; note: nearly all actives have a fitted effect of over 50% in size; note: potency is the fitted concentration of half-maximal effect); conditions: FXR-bla HEK293T viability, CellTiter-Glo luminescence, 16 h; activity change, negative = cytotoxicity: at 62.6 µM (top of the series)
# In short: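 Luminescence from CellTiter-Glo measures cytotoxicity in GeneBLAzer FXR-UAS-bla HEK 293T cells. Cells were exposed to compounds with 50 uM chenodeoxycholic acid (final) for 16 h at 37 C, in wells also used for the reporter readout.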
# [9] = target: Peroxisome proliferator-activated receptor delta (Homo sapiens) (UniProt Q03181); test: qHTS assay to identify small molecule agonists of the peroxisome proliferator-activated receptor delta (PPARd) signaling pathway (AID 743212; calls by dose curve; note: potency is the fitted concentration of half-maximal effect); conditions: HEK293H PPARd-UAS-bla, beta-lactamase FRET ratio, 17 h; activation: at 62.6 µM (top of the series) unless noted
# Sequence of UniProt Q03181 (Q03181 whole entry, looked up): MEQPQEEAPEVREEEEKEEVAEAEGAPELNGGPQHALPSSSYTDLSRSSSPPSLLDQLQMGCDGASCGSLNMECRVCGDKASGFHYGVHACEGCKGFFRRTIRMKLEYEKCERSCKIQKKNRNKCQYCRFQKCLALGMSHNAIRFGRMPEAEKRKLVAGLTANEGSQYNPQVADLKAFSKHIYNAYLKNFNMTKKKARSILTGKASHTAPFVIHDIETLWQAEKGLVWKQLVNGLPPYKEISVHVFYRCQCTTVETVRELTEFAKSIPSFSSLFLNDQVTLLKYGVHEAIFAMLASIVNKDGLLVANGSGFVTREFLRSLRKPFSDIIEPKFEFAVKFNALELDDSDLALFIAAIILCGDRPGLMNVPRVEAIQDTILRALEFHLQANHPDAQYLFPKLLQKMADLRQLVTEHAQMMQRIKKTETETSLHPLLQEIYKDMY
# In short: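 Beta-lactamase reporter read by fluorescence (LiveBLAzer B/G FRET, 2 h, room temperature). Test agents, in DMSO, incubated at 37 C with PPARd-bla HEK293H cells.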
# [10] = qHTS assay to identify small molecule antagonists of the peroxisome proliferator-activated receptor delta (PPARd) signaling pathway - cell viability counter screen (AID 743213); conditions: PPARd-bla HEK293H viability, CellTiter-Glo luminescence, 17 h; viability change, negative = cytotoxic: at 62 µM (top of the series) unless noted; note: nearly all actives have a fitted effect of over 50% in size; note: potency is the fitted concentration of half-maximal effect
# In short: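 HEK293H PPARd UAS-bla cells, 5 h pre-incubation, compound + L165041 300 nM final, 17 h 37 C; B/G FRET substrate 2 h RT; then CellTiter-Glo 30 min RT, luminescence.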
# [11] = target: Peroxisome proliferator-activated receptor delta (Homo sapiens) (UniProt Q03181); test: qHTS assay to identify small molecule antagonists of the peroxisome proliferator-activated receptor delta (PPARd) signaling pathway (AID 743215; active = well fitted inhibition curve with a large enough effect in the signal ratio in the repeat runs, not every such curve was filed as active; inconclusive = weak or mixed curves, or effect the other way; inactive = no such curve, though single readings can be large or run the other way; the % refers to the signal ratio;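 note: cells stimulated with agonist L165041 at 300 nM final during compound exposure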; note: potency is the fitted concentration of half-maximal effect); conditions: HEK293H PPARd-UAS-bla, beta-lactamase FRET ratio, antagonist, 17 h; ratio activity, negative = inhibition: at 62 µM (top of the series) unless noted
# In short: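 Cells: HEK293H with a UAS-driven beta-lactamase reporter responsive to PPARd. Compounds were co-added with L165041 (300 nM, final) and incubated 17 h at 37 C before a 2 h room-temperature FRET substrate step and fluorescence reading.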
# [12] = target: Bile acid receptor (Homo sapiens) (UniProt Q96RI1); test: qHTS assay to identify small molecule agonists of the farnesoid-X-receptor (FXR) signaling pathway (AID 743220; active = well fitted activation curve with a large enough effect in the signal ratio in the repeat runs, not every such curve was filed as active; inconclusive = weak or mixed curves, or effect the other way; the % refers to the signal ratio; note: potency is the fitted concentration of half-maximal effect); conditions: HEK293T FXR-UAS-bla, beta-lactamase FRET ratio, 16 h; activation: at 62.6 µM (top of the series) unless noted
# In short: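 FXR-UAS-bla HEK 293T cells carrying a UAS-driven beta-lactamase reporter were plated for 5 h at 37C/5% CO2, then exposed to DMSO-dissolved Tox21 10K compounds for 16 h at 37C. A LiveBLAzer B/G FRET substrate was loaded for 2 h at room temperature before fluorescence reading.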
# [13] = qHTS assay for small molecule agonists of the antioxidant response element (ARE) signaling pathway - cell viability counter screen (AID 743203; calls by dose curve; note: potency is the fitted concentration of half-maximal effect; nearly all actives have a fitted effect of over 55% in size); conditions: ARE-bla HepG2 viability, CellTiter-Glo luminescence, 16 h; viability change, negative = cytotoxic: at 73.3 µM (top of the series)
# In short: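 Cytotoxicity was tested in parallel with the ARE reporter screen. ARE-bla HepG2 cells were exposed to compounds for 16 hrs, and viability was taken from CellTiter-Glo luminescence.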
# [14] = target: Vitamin D3 receptor (Homo sapiens) (UniProt P11473); test: qHTS assay to identify small molecule agonists of the vitamin D receptor (VDR) signaling pathway (AID 743222; calls by dose curve; note: potency is the fitted concentration of half-maximal effect); conditions: HEK293T VDR-UAS-bla, beta-lactamase FRET ratio, 16 h; activation: at 63.5 µM (top of the series) unless noted
# In short: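 Cells carrying a VDR-driven beta-lactamase reporter are seeded at 2,000 per well and rested 4 h. Compounds in DMSO are added for 16 h at 37C, and FRET substrate fluorescence is measured after 2 h at room temperature.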
# [15] = qHTS assay to identify small molecule agonists of the peroxisome proliferator-activated receptor delta (PPARd) signaling pathway - cell viability counter screen (AID 743211); conditions: PPARd-bla HEK293H viability, CellTiter-Glo luminescence, 17 h; activity change, negative = cytotoxicity: at 62.6 µM (top of the series); note: nearly all actives have a fitted effect of over 55% in size; note: potency is the fitted concentration of half-maximal effect
# In short: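 HEK293H PPARd-bla, 3000 cells/well; 5 h preincubation 37C/5% CO2; cpd in DMSO, 17 h 37C; B/G FRET substrate 2 h RT; CellTiter-Glo 30 min RT, luminescence.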
# [16] = activation: at 73.3 µM (top of the series) unless noted
# [17] = activity change, negative = inhibition: at 61 µM (top of the series) unless noted
# [18] = activity change, negative = inhibition: at 62.6 µM (top of the series) unless noted
# Tags give direction and shape of the fitted curve or compound fluorescence and quenching.
compound,measurement,setting,value
C/C=C(\C)C#N,Potency,[1],"inconclusive: 34.1 µM [rising, partial curve, poor fit]"
same,activation,[2]; [16],inconclusive: 13.6%
same,Potency,[3],inactive
same,Potency,[4]; [17],inactive
C[Si](C)(C)Cl,Potency,[1],inactive
same,Potency,[2]; [16],"inconclusive: 29.7 µM [rising, partial curve, poor fit]"
same,Potency,[5]; [18],inactive
CCOC(N)=O,activation,[2]; [16],inconclusive: -12.9%
same,activation,[2]; at 73.3 µM (top of the series),inactive: 3.38%
same,activation,[2]; at 94.8 µM (top of the series),inactive: 2.46%
same,Potency,[3],"inconclusive: 0.298 µM [cytotoxic, single point]"
same,Potency,[6],inactive
same,Potency,[7],inactive
C/C=C/C(=O)O,Potency,[2]; [16],inactive
same,Potency,[3],"inconclusive: 23.4 µM [cytotoxic, single point]"
same,"activity change, negative = inhibition",[4]; [17],inconclusive: 20%
Cc1cccc(Nc2ccccc2)c1,Potency,[1],"inconclusive: 0.436 µM [cytotoxic, full curve, poor fit]"
same,Potency,[5]; [18],inactive
same,Potency,[8],"inconclusive: 21.9 µM [falling, partial curve, poor fit]"
CCCCCCCC/C=C/CCCOC(C)=O,activation,[2]; [16],inconclusive: -0.517%
same,Potency,[3],"inconclusive: 61.6 µM [cytotoxic, single point]"
same,Potency,[6],inconclusive: 61.6 µM [single point]
same,Potency,[9],inactive
same,Potency,[10],"inconclusive: 61.6 µM [cytotoxic, single point]"
same,Potency,[11],"inconclusive: 61.6 µM [rising, partial curve, poor fit]"
same,Potency,[12],inactive
C1COC1,Potency,[1],inactive
same,Potency,[7],inactive
Cc1cccc(C)c1NC(=O)C(C)N (configuration not stated),"activity change, negative = cytotoxicity",[1],inconclusive: 8.18% [cytotoxic]
same,activation,[2]; [16],inconclusive: -16.8%
same,Potency,[3],inactive
CNc1c2c(nn1C)CCCC2,Potency,[2]; [16],inactive
same,Potency,[13],"inconclusive: 4.73 µM [cytotoxic, partial curve, poor fit]"
CCCCC,Potency,[1],"inconclusive: 0.0136 µM [cytotoxic, full curve, poor fit]"
same,Potency,[5]; [18],inactive
CCCOC(=O)c1ccc(C(=O)OCCC)nc1,"activity change, negative = cytotoxicity",[1],inconclusive: -35.4% [cytotoxic]
same,Potency,[2]; [16],inactive
same,"ratio activity, negative = inhibition",[11],inconclusive: -0.376%
same,"activity change, negative = inhibition",[5]; [18],inconclusive: 1.68%
same,activation,[14],inconclusive: -5.4%
same,"activity change, negative = inhibition",[4]; [17],inconclusive: 13.9%
NC1=NCC2c3ccccc3Cc3ccccc3N12 (configuration not stated),Potency,[1],"inconclusive: 33.5 µM [cytotoxic, single point]"
same,Potency,[2]; [16],"inconclusive: 29.8 µM [falling, single point]"
same,activation,[14],inconclusive: 7.97%
BrCc1cccc(Oc2ccccc2)c1,Potency,[1],"inconclusive: 0.692 µM [rising, partial curve, poor fit]"
same,Potency,[9],"inconclusive: 61.6 µM [rising, single point]"
O=C(O)c1ccc(C(=O)O)cc1,Potency,[1],"inconclusive: 0.49 µM [cytotoxic, full curve, poor fit]"
same,Potency,[15],"inactive and inconclusive: 11 µM [cytotoxic, partial curve, poor fit]"
same,Potency,[10],inactive
same,Potency,[4]; [17],inactive
CCCCN1C(=O)c2ccccc2C1=O,Potency,[1],inactive
same,Potency,[2]; [16],inactive
same,Potency,[10],"inconclusive: 5.07 µM [cytotoxic, partial curve, poor fit]"
same,Potency,[5]; [18],inactive
same,Potency,[7],inactive
same,Potency,[12],"inconclusive: 5.07 µM [rising, partial curve, poor fit]"
same,"activity change, negative = inhibition",[4]; [17],inconclusive: 3.7% [activator] [at 78.8 µM]
NC1CCCCC1N (configuration not stated),Potency,[3],inactive
O=C=Nc1ccc(Cc2ccc(N=C=O)cc2)cc1,"activity change, negative = inhibition",[5]; at 62.6 µM (top of the series),inactive: -2.63%
CCCCCCCCCCCCCC(=O)OC,Potency,[8],inactive
CCCCOc1ccc(CC(=O)NO)cc1,"activity change, negative = cytotoxicity",[8],inconclusive: -36.7%
CN(C)CCOC(C)(c1ccccc1)c1ccccn1 (configuration not stated),"activity change, negative = inhibition",[4]; at 61 µM (top of the series),inactive: -10.7% and inactive: -15.8%
C=CCOCC(CC)(CO)COCC=C,Potency,[2]; [16],inactive
same,Potency,[14],"inconclusive: 21.9 µM [activator, single point]"
Nc1cc(C(F)(F)F)ccc1S,Potency,[6],inconclusive: 9.81 µM [activator]
same,Potency,[15],"inconclusive: 33.5 µM [cytotoxic, single point]"
same,Potency,[9],"inconclusive: 33.5 µM [rising, partial curve, poor fit]"
same,Potency,[10],"inconclusive: 5.96 µM [cytotoxic, partial curve, poor fit]"
same,Potency,[11],inconclusive: 33.5 µM
same,Potency,[5]; [18],"inconclusive: 15 µM [activator, partial curve]"
same,Potency,[12],inconclusive: 33.5 µM [activator]
same,"activity change, negative = inhibition",[4]; [17],inconclusive: 0.0052%
